From a compilation of properties of binary mixtures (doi:10.1021/je100671v)
Some of these densities may be calculated back from excess volumes.

Assay: xn = mol fraction of the nth substance listed
Conditions: 298.15 K, 101.3 kPa

## CCCCCCCC(=O)[O-].c1c[nH+]c[nH]1 + CC#N
x2 = 0
  mass density: 987 kg/m3
x2 = 0.1044
  mass density: 988.1 kg/m3
x2 = 0.1986
  mass density: 985.2 kg/m3
x2 = 0.298
  mass density: 978.9 kg/m3
x2 = 0.4005
  mass density: 969.6 kg/m3
x2 = 0.499
  mass density: 957.9 kg/m3
x2 = 0.5995
  mass density: 942.5 kg/m3
x2 = 0.6924
  mass density: 923 kg/m3
x2 = 0.7988
  mass density: 891.6 kg/m3
x2 = 0.8996
  mass density: 846.7 kg/m3

## CCCCCCCC(=O)[O-].c1c[nH+]c[nH]1 + CCCCCCCCO
x2 = 0
  mass density: 987 kg/m3
x2 = 0.1011
  mass density: 974.4 kg/m3
x2 = 0.1999
  mass density: 961.2 kg/m3
x2 = 0.2991
  mass density: 947 kg/m3
x2 = 0.6999
  mass density: 881.8 kg/m3
x2 = 0.799
  mass density: 863.9 kg/m3

## CCCCCCCC(=O)[O-].c1c[nH+]c[nH]1 + CCO
x2 = 0
  mass density: 987 kg/m3
x2 = 0.1043
  mass density: 981.6 kg/m3
x2 = 0.1984
  mass density: 976.3 kg/m3
x2 = 0.301
  mass density: 970.1 kg/m3
x2 = 0.4
  mass density: 962.7 kg/m3
x2 = 0.4786
  mass density: 954.6 kg/m3
x2 = 0.5999
  mass density: 938.1 kg/m3
x2 = 0.7006
  mass density: 918.8 kg/m3
x2 = 0.7999
  mass density: 891.8 kg/m3

## CCCCCCCC(=O)[O-].c1c[nH+]c[nH]1 + O
x2 = 0
  mass density: 987 kg/m3
x2 = 0.0989
  mass density: 987.9 kg/m3
x2 = 0.1964
  mass density: 988.8 kg/m3
x2 = 0.3042
  mass density: 990 kg/m3
x2 = 0.4091
  mass density: 991.7 kg/m3
x2 = 0.6017
  mass density: 996.6 kg/m3
x2 = 0.6643
  mass density: 998.6 kg/m3
x2 = 0.8154
  mass density: 1002.9 kg/m3

## CCCCCCCCO + c1c[nH+]c[nH]1.CCCCCCCC(=O)[O-]
x1 = 1
  mass density: 824.5 kg/m3

## CCO + c1c[nH+]c[nH]1.CCCCCCCC(=O)[O-]
x1 = 1
  mass density: 790 kg/m3
